43 molecules from PMC4336329 (PLoS ONE, 2015) can be followed below.

The whole screen tested about 310,000 compounds, of which about 2,200 (0.71%) showed an effect of 50% or more. Effects have a minus sign here. The list shows a part of the results.

In this test the target is human ether-à-go-go-related gene (hERG) potassium channel (human, UniProt Q12809). The experiment in a line: primary screen, population patch clamp on CHO cells stably expressing hERG.
Chain of human ether-à-go-go-related gene (hERG) potassium channel (Q12809 whole entry, looked up): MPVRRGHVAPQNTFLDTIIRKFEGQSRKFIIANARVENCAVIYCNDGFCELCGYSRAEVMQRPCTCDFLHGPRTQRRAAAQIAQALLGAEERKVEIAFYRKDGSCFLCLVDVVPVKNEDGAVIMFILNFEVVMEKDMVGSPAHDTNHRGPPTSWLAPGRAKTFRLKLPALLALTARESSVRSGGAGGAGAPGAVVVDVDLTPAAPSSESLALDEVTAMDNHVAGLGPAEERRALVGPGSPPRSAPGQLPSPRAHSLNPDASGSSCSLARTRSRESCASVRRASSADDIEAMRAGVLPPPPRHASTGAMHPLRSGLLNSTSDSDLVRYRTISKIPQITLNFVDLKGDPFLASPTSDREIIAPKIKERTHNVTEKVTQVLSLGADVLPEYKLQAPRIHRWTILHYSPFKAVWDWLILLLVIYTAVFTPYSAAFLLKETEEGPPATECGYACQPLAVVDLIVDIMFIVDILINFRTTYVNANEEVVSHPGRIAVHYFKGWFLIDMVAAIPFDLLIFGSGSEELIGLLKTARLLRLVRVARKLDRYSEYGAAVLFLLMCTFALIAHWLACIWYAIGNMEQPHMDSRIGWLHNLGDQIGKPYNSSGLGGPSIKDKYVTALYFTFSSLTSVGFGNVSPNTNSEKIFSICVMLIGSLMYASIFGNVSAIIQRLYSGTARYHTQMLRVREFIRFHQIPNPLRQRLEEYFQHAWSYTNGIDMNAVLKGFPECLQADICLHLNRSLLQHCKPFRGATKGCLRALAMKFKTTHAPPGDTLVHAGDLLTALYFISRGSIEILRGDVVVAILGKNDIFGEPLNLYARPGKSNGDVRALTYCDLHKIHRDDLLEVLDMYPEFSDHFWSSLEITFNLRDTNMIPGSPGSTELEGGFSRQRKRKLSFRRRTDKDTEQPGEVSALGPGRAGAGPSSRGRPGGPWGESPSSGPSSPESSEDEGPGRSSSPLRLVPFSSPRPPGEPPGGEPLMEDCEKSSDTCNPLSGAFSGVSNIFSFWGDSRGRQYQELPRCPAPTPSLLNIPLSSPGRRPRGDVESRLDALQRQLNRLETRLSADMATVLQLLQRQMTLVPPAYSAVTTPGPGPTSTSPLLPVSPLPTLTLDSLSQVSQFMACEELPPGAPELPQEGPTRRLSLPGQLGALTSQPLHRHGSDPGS
For the molecule `CN(C)CC(C)(C)CNC(=O)C1CCN(CCCc2ccccc2)CC1.O=C(O)C(=O)O`, the “hERG current change (%, negative = inhibition) at 1uM” value amounted to 14.7%.
In the case of `CC(C)CC1(C)NC(=O)N(CC(=O)Nc2ccc3c(c2)CCC3)C1=O` (stereo not shown), the “hERG current change (%, negative = inhibition) at 1uM” value is listed as -4.58%.
For the molecule `COc1ccc(CCNC(=O)CSc2nnc(C(C)N(C)C)n2Cc2ccccc2)cc1OC` (stereo not shown), the “hERG current change (%, negative = inhibition) at 1uM” value was 2.3%.
As for `COc1ccc(/C=C2\SC(=O)N(CCNC(=O)C3CC4C=CC3C4)C2=O)cc1` (stereo not shown), the “hERG current change (%, negative = inhibition) at 1uM” value is recorded as 1.01%.
`COc1ccc(-c2csc(NC(=S)NC(=O)/C=C/c3ccco3)n2)cc1Br`: the “hERG current change (%, negative = inhibition) at 1uM” value is 27.8%.
As for `COc1ccc2cc3c(N)nn(C(=O)c4ccccc4Cl)c3nc2c1`, the figure is 5.88%; as for `O=C(C1=C(O)C(=O)N(CCN2CCOCC2)C1c1ccc([N+](=O)[O-])cc1)c1cccs1` (stereo not shown), 16.6%.
Next, `Cn1cnc([N+](=O)[O-])c1Cl`: 11%; `COC(=O)C1=C(c2ccc(OCc3ccccc3)cc2)C[C@@H]2CC[C@H]1N2C(=O)NCc1ccc(N(C)C)cc1`: -0.509%; `O=[N+]([O-])c1ccn(-c2nc(-c3ccccc3)cc(C(F)(F)F)n2)n1`: -25.8%.
As for `CCC(C)NC(=O)c1ccc(NC(=O)C2CCCO2)cc1` (stereo not shown), the figure is 3.93%; as for `Cc1ccc(CNC(=O)CCCn2nc(C)c3c(C)n(-c4ccccc4)nc3c2=O)cc1`, 16.1%; as for `COc1ccc(-c2n[nH]c(=S)n2-c2cc(OC)ccc2OC)cc1`, 8.94%.
On to `O=C(CSc1n[nH]c(=O)n1-c1ccccc1)Nc1ccccc1C(F)(F)F`, for which the “hERG current change (%, negative = inhibition) at 1uM” value was determined as 14.8%.
Next, `O=C(NCc1ccc(Cl)cc1)c1ccc(CNc2c(N3CCOCC3)c(=O)c2=O)cc1`: 4.11%; `Cc1ccc(C(=O)Nc2ccc(N3CCOCC3)cc2N2CCOCC2)cc1`: 12.7%; `COc1cc2oc3ccccc3c2cc1N(CC(=O)N(C)C)S(=O)(=O)c1ccc(C)cc1`: 9.73%.
`C[C@H]1CC[C@H]2C(=O)N[C@H](Cc3ccccc3)C(=O)N2[C@@H]1c1ccccc1`: the “hERG current change (%, negative = inhibition) at 1uM” value is reported as 28.8%.
Next, `Nc1ncnc2c1C1(CCCCC1)Cc1ccccc1-2`: -1.87%; `COc1ccc(CCNC(=O)CCC(=O)n2ncc3ccc(Cl)cc32)cc1OC`: 8.6%.
On to `CCCCC(=O)Nc1ccc2c(c1)nc(CCN1CCOCC1)n2C`, for which the “hERG current change (%, negative = inhibition) at 1uM” value is 5.44%.
Next, `CC1(c2nnc(Cc3ccccc3)o2)CC(c2ccccc2Br)=NO1` (stereo not shown): 10.3%; `O=C(Nc1nnc(CCc2ccccc2)s1)C1CCCO1` (stereo not shown): 4.31%; `Cc1ccc(C2CC(c3ccccc3)=NN2C(=O)CSc2nnc(-c3ccncc3)n2C)o1` (stereo not shown): 30.4%.
As for `CC(NC(=O)c1cccs1)C(c1cccs1)N1CCN(Cc2ccccc2)CC1` (stereo not shown), the figure is -13.4%.
As for `C[N+]1(CCn2ccc3ccccc32)CCCCC1.[I-]`, the figure is 15.5%; as for `Cc1ccc(C(C#N)c2ccc(C(=O)c3ccc(F)cc3)cc2)cc1` (stereo not shown), 17.6%; as for `O=C(NC(=O)N1CCN(C(c2ccccc2)c2ccccc2)CC1)c1ccccc1`, 2.03%.
Regarding `CCOC(=O)c1cc(-c2csc(-c3ccc(C(C)(C)C)cc3)n2)on1`, the “hERG current change (%, negative = inhibition) at 1uM” value is listed as 3.69%.
As for `O=C1CN(C(=O)COC(=O)/C=C/c2ccc(S(=O)(=O)N3CCOCC3)cc2)c2ccccc2N1`, the figure is 10.2%; as for `O=C(Nc1ccccc1C(=O)NC(Cc1c[nH]c2ccccc12)C(=O)O)c1ccco1` (stereo not shown), 3.31%.
On to `S=C1NCCNC(=S)NCCOCCOCCOCCN1`, for which the “hERG current change (%, negative = inhibition) at 1uM” value is 10.5%.
As to `O=C(N/N=C/c1ccccn1)c1cc(-c2cccc3ccccc23)n[nH]1`, the “hERG current change (%, negative = inhibition) at 1uM” value is 5.17%.
As for `CC1CCCC(C)N1C(=O)CSc1ncccn1` (stereo not shown), the figure is 19.3%; as for `Cn1cnc([N+](=O)[O-])c1Sc1ncn[nH]1`, 15.7%; as for `COC(=O)c1sc(NC(=S)NC(=O)c2ccccc2Cl)nc1C`, 11%.
Next, `COCC(=O)N1CCC(Oc2ccc(C(=O)NCc3cc(C)no3)cc2)CC1`: -4.65%; `CCOc1cc(CNCCc2ccc(S(N)(=O)=O)cc2)ccc1OCC(=O)NC1CCCCC1.Cl`: 7.04%; `O=C(CCCCCn1c(=S)[nH]c2ccc(N3CCOCC3)cc2c1=O)NCc1ccc(Cl)cc1`: 18.3%.
As for `COc1ccc(OC)c(CC(NC(C)=O)C(=O)NC2CCN(c3c(Cc4ccccc4)c(C)nc4ncnn34)CC2)c1` (stereo not shown), the figure is 5.3%.
For the molecule `CCCC(=O)NNc1cc(=O)c2c(=O)n(C)c(=O)n(C)c2[nH]1`, the “hERG current change (%, negative = inhibition) at 1uM” value was 8.94%.
Next, `COCCOC(=O)c1[nH]c2c(c1C)C(=O)C(C(=O)OC)C(C)C2` (stereo not shown): 6.73%.
As for `O=C(CSc1nnc(NC(=O)c2ccco2)s1)Nc1ccc2c(c1)OCCO2`, the figure is 11.4%.
